The record followed here is the RNAGym collection of RNA variant scans (doi:10.1093/nar/gkz1192).

The source gives no read counts; variants with many changes may rest on few reads.

B1: CPEB3 Ribozyme (parent)
chain: UAACAGGGGGCCACAGCAGAAGCGUUCACGUCGCAGCCCCUGUCAGAUUCUGGUGAAUCUGCGAAUUCUGCUGUAUAUCUC

Variants of B1 are the subject of this series. The series is described as follows: self-cleavage, relative activity (ratio to wild type); higher = more cleavage; in vitro, sequencing. In a few lines:
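For each CPEB3 ribozyme variant, relative activity is its cleaved/total read fraction divided by the unmutated ribozyme's. Barcoded error-prone PCR libraries were transcribed by T7 RNA polymerase (5 hours, 37°C) and held in DNase I for 15 min before an EDTA stop, with cleavage occurring throughout. Template-switching reverse transcription and Illumina sequencing were used to read the RNAs. A 5-read minimum applied, and results are the mean of three batches.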
On to A20G U25C A35G U49C A65G, for which the self-cleavage stood at 0.06.
To A20U A35U U49C U60C A65G belongs 0.06; to A20G U41A A45G A56G U74C U80C, 0.1; to A20U U51C A64U, 0.16.
The same measure for A20G U25C U41C U43C: 0.06.
The same measure for A20G A56G A57G A77G: 0.38; for A21C U41A A47G A64G: 0.07.
As for A20U C40G A56U U60A, the self-cleavage is 0.13.
Regarding A20U U26C U31C G42A U60C, the self-cleavage is 0.24.
For the variant A21C G30C C38U U41C, the self-cleavage came out at 0.16.
For the variant A20G U31A U78A, the self-cleavage was 0.23.
Consider A20U A21U G24C A47G U80C, for which the self-cleavage amounted to 0.24.
To A20G G63A U80C belongs 0.82.
Consider A20U U25C A35U C81U, for which the self-cleavage was 0.04.
Turning to A20G U60C U69A, the self-cleavage was found to be 0.15.
Regarding A20G U26A A35G G42A G53A U67C, the self-cleavage was 0.2.
The same measure for A20G U41C A65G: 0.19; for A20G U48C U51A A56U: 0.17.
With A20U C29A A35U U51A A77G U78C, the self-cleavage was found to be 0.06.
For the variant A20U U60C G70A, the self-cleavage was 0.11.
To A20G G30A U67C belongs 0.18.
A20G U26A G30U G42A: the self-cleavage worked out at 0.19.
As to A20G G52U U54C A56G U78A, the self-cleavage amounted to 1.14.
Regarding A20G A35G C38U A47G, the self-cleavage turned out to be 0.64.
The same measure for A20G C39A U69C: 0.09; for A20G U25C U54A: 0.15.
On to A20G G52A A64G, for which the self-cleavage was 0.6.
As to A20U A45G U54G A57U U60C G73A, the self-cleavage was found to be 0.3.
To A20G G30A G42U belongs 0.09.
To A20G U31A A57G belongs 0.34.
For the variant A20U C37U U41A U48C C62G U74G, the self-cleavage was 0.05.
The same measure for A20U A28C G42A: 0.08.
The same measure for A20G U25C A28U: 0.08.
Consider A20U U66C U72A A75G U78C, for which the self-cleavage was 0.1.
The same measure for A20G U43G U67C: 0.15; for A20U U43A A45G C79A U80C: 0.3; for A20G G46C A47C A64G: 0.
For A20G U60C U72C, the self-cleavage was found to be 0.35.
The same measure for A20G U48C U69A: 0.22; for A20G U25C U31G C44U G53A A77G: 0.06; for A20G A47U U51C: 0.64.
For A20G U31C A64U U72G, the self-cleavage was found to be 0.12.
As for A20U U41C U49C A56U, the self-cleavage stood at 0.16.
For A20G U51C A57U U72C U80C, the self-cleavage was found to be 0.33.
As for A20G U60C A65C U74C, the self-cleavage worked out at 0.13.
Regarding A21C U25C U48A, the self-cleavage was 0.21.
As to A20U U54C C79A, the self-cleavage worked out at 0.39.
For A20G U31C U41A, the self-cleavage was determined as 0.09.
The same measure for A20G C29U G30U U51A U69A U72A U78C: 0.13; for A20G U41C A45U C59U A65G: 0.15.
To A20G U43A U74C belongs 1.22; to A20U U48C A57G, 0.29; to A20G G55C U60C U69C, 0.25.
The same measure for A20G A35C U78C: 0.51; for A20G U41C A65U U72C: 0.35; for A20U A47G U60C U74A A77G: 0.06.
Consider A20G C37U C50G A65U, for which the self-cleavage was 0.07.
The same measure for A20G U25C U26A G53U U67C A77U U80C: 0.11; for A20G C37U U72C A75U: 0.64.
To A20G C29U U49C C62G U67C U72C A75G belongs 0.08; to A20G U26A A28G U72A, 0.04; to A20U C34G U41A G46A U58C C68G, 0.06.
To A20U A28U C34G A57G U72C U78C belongs 0.22; to A20G U25C A64G U67A U76C A77U, 0.39; to A20U A28G A45U, 0.14.
For the variant A20G A28U A57G U60A U66C, the self-cleavage was found to be 0.03.
The same measure for A20G C23A U58C: 0.18; for A21C G22A U60G: 0.42.
Consider A20U A28U U41C U49C A64U U66C U67A, for which the self-cleavage turned out to be 0.06.
To A20G U31C A65G A77U belongs 0.15; to A21G A28G A56G, 0.58.
With A20G C39G U69C, the self-cleavage was 0.17.
To A20G C40U U41A U51A U78C belongs 0.5; to A20U U41A U60A A64G U69A U76C, 0.03; to A20G A64G C79A, 1.01.
To A20G U41C U78G belongs 1.13.
Take A20U U69A U72C: the self-cleavage came to 0.16.
Regarding A20U A28G A65U, the self-cleavage turned out to be 0.39.
Turning to A20U A28U U41C A47G A56G U58C U72C, the self-cleavage stood at 0.14.
The same measure for A20G C23U C27U A28G U31A U58C: 0.23; for A20G A47G A56U: 0.47.
Regarding A20U U25C C29U A35G U41A G53A, the self-cleavage was 0.18.
As to A20G A35G U41C A56G U60A, the self-cleavage was 0.45.
On to A20U A28G U31A A64G A65G, for which the self-cleavage amounted to 0.1.
In the case of A20G U26C A75G, the self-cleavage came to 0.19.
The same measure for A20U U69C U74C A77G: 0.12; for A20G U26C U41A U60C A65G U66C U78C: 0.17.
Regarding A20U G24A U26C U58C U67C U72C, the self-cleavage was found to be 0.21.
On to A20G U41A G61A U66C, for which the self-cleavage came to 0.11.
In the case of A20U U49C A57U U72C, the self-cleavage came out at 0.44.
Consider A20G U26A C38U U41C C44U U54A C79A, for which the self-cleavage was 0.06.
Regarding A20G G36U U48C, the self-cleavage is 0.41.
Regarding A20U A56U U60A, the self-cleavage turned out to be 0.31.
In the case of A20G C29G A56U, the self-cleavage was determined as 0.07.
The same measure for A20U U25A U26A: 0.08; for A21C U26C U49C: 0.07; for A20G U51C U72C C79A: 1.05.
To A20U U48C U74A U80A belongs 0.13.
For the variant A20G C34A U67C C68A, the self-cleavage was found to be 0.13.
To A20G U26C U60C C79U belongs 0.06; to A20G U66A G73A U80C, 1.05.
For A20G A47G U60C A64G, the self-cleavage came to 0.18.
The same measure for A20G C39A U67C: 0.33; for A20G U60C A64U: 0.13.
The same measure for A20G A35U A57G: 0.33.
Take A20U U31A G36U U67C U74C: the self-cleavage is 0.25.
Turning to A20U U26C G55C U74A, the self-cleavage worked out at 0.26.
On to A20G U25C U43A U72A U80C, for which the self-cleavage is 0.16.
The same measure for A20G U41C G53A U67C: 0.96; for A20U U26C U31C U43C U60C: 0.17.
For A20G U25C U43A G46U, the self-cleavage was 0.26.
Regarding A20G A64G U69C, the self-cleavage came to 0.19.
As to A20G A45G A65U, the self-cleavage came to 0.13.
With A20U U74A C79A, the self-cleavage was 0.64.
Regarding A20G G30C A47U U48C U60G, the self-cleavage came out at 0.06.
Regarding A20U C29A C50U, the self-cleavage worked out at 0.21.
A20G U25A C40U U51C U72C: the self-cleavage worked out at 0.07.
To A20G U26A A45U belongs 0.27; to A20G C37U U58C U69C U72C, 0.07.
The same measure for A21G A28G A35G A56G A57G: 1.27; for A20G A28U A56G U66C: 0.41; for A20U U41A U69C: 0.17.
To A20G G22C U26A A28U U43A U66C belongs 0.04.
As to A20U A35G C59A, the self-cleavage stood at 0.31.
To A20U G33A U41C U66C belongs 0.1.
To A20G A47G G52C A57G A77G belongs 0.67; to A20G U72A U78C, 0.5.
To A20U A28U A56U belongs 0.21.
As to A20G C32U A45U C62U U72G, the self-cleavage was 0.04.
The same measure for A20U U26C U66C: 0.09.
With A21C A28U G33A U43A C59U U60C U66A, the self-cleavage came to 0.11.
The same measure for A20G U31A G63U: 0.3; for A20G A45G U69A: 0.26; for A20G U25C A56G G61A: 0.07.
Consider A20G U43C A47G, for which the self-cleavage worked out at 0.45.
Turning to A20G A45G U48A U80G, the self-cleavage is 0.03.
For A20G A28G U60C U72C, the self-cleavage worked out at 0.11.
The same measure for A20G A56G C59U: 0.37.
Turning to A20G U25C C27A A65U A75U, the self-cleavage came to 0.09.
To A20G C32U U43C U66C belongs 0.09.
With A20U A35G A56G A57G U69A, the self-cleavage worked out at 0.25.
To A20G C29A U43C belongs 0.09.
A20G U26A U31A: the self-cleavage turned out to be 0.31.
Consider A20U U25A A28G, for which the self-cleavage amounted to 0.09.
For A21C G33U C39A, the self-cleavage came out at 0.19.
To A20U U51C A57G A64U belongs 0.1.
For A20G G36U A45G U78C, the self-cleavage amounted to 0.05.
Consider A20U U26C A28G U41A U74C, for which the self-cleavage worked out at 0.21.
To A20U A28U G33U U41A belongs 0.21; to A20G U31C U49C G55A A56G, 0.34; to A20U U26C U48A U69C, 0.31.
Take A20G U54G G70A U78C: the self-cleavage turned out to be 0.27.
For A21C U25C A45G U48C A65G A77G, the self-cleavage is 0.
To A20U A45G A47U U69G belongs 0.26; to A20G G33A A35U A45G U58C U69C U74C, 0.05; to A20G U43C U49A, 0.3.
For the variant A20G A64G A65G U72C, the self-cleavage came to 0.24.
To A20G C37U A65G belongs 0.38.
The same measure for A20G U31C A64G U67A U74A: 0.25; for A20G A28G U54C C71G: 0.16; for A20G U51A A57G: 0.31.
For the variant A20G U31A A35U U67A, the self-cleavage turned out to be 0.18.
Turning to A20U U31A A35G A57C, the self-cleavage came out at 0.16.
As to A20G C29A U43C U51C, the self-cleavage was 0.29.
On to A20G C59U U60C U78A, for which the self-cleavage came out at 0.52.
To A20U A45C G46A A65U belongs 0.08; to A20G C23A U26A U69C U76G, 0.04.
